# Measured values: PubChem BioAssay (NCATS)
# Values joined by “and” are separate entries in the source; they are usually repeats but may differ in a detail not shown here. Equal values may be shown once. The inconclusive results got no clear call from the source; some entries with a clear call stand among them for comparison. Potencies of inconclusive entries are doubtful fits and often do not repeat. Active and inactive are the calls of the source. The call rests on the fitted dose curve; in most records, active means well fitted cell-killing curve with a large enough effect; inconclusive means small, poorly fitted or top-dose-only effect, or effect the other way; inactive means no such curve, though single readings can be large or run the other way.
# Experiment: Viability qHTS for spleen associated tyrosine kinase inhibitor (SYKi) drug resistant MV4-11 cells (AID 1963824); further: nearly all actives have a fitted effect of over 35% in size
# Conditions: SYKi-resistant MV4-11 viability, CellTiter-Glo, 72 h; series mostly up to 45 µM; viability, % of control: at the top concentration
# Summary of the method: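 SYK-inhibitor-resistant MV4-11 AML cells were seeded at 500 per well onto compound and cultured 72 hours (37 °C, 5% CO2). CellTiter-Glo was then added, and after 10 min at room temperature, luminescence gave viability.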
# Potency means the concentration at half of the fitted maximal effect; tags describe the fitted curve by direction and shape.
Compound,Potency,"viability, % of control"
CC1=CCC(O)C2(C)CCC3C(C)C(=O)OC3C12 (centres undefined),"inconclusive: 3.66 µM [cytotoxic, partial curve, poor fit]",–
CC1=CC(=O)C[C@H]2[C@@H]1CC[C@@H](C)[C@]21CO[C@H](c2ccoc2)C1=O,–,inactive: 72.7%
CCCCC1=NC2(CCCC2)C(=O)N1Cc1ccc(-c2ccccc2-c2nn[nH]n2)cc1,"inactive and inconclusive: 16.4 µM [cytotoxic, partial curve, poor fit]",–
C=C(C)C1Cc2c(ccc3c2OCC(c2ccc(O)cc2O)C3)O1 (centres undefined),"inconclusive: 16.1 µM [cytotoxic, partial curve]",–
C=C1CCC(OC(C)=O)C2(C)CC3(O)OC(=O)C(C)=C3CC12 (centres undefined),–,inactive: 79.2%
COCCN1CCC(C(=O)NO)(S(=O)(=O)c2ccc(Oc3ccc(OC(F)(F)F)cc3)cc2)CC1,"inconclusive: 29.1 µM [cytotoxic, single point]",–
COC[C@H](C)Oc1cc(O[C@@H](C)Cc2ccccc2)cc(C(=O)Nc2ccc(C(=O)O)cn2)c1,"inconclusive: 25.9 µM [cytotoxic, partial curve, poor fit]",–
COc1ccccc1OCCNCC(O)CCOc1cccc2[nH]c3ccccc3c12 (centres undefined),active: 9.2 µM,–
CN1CCN(C(=O)[C@H]2[C@@H](C(=O)O)[C@H]3CC[C@@H]2O3)CC1,"inconclusive: 2.15 µM [cytotoxic, partial curve, poor fit]",–
C=C1CC23CC1CCC2C12OC(=O)C(C)(C(O)CC1O)C2C3C(=O)O (centres undefined),"inconclusive: 3.21 µM [cytotoxic, single point]",–
CC(=O)Oc1cccc(C)c1,–,inactive: 75.1%
CC1(C)S[C@@H]2[C@H](NC(=O)[C@H](N)c3ccc(O)cc3)C(=O)N2[C@H]1C(=O)O,–,inactive: 92.1%
COC(=O)[C@@H](NC(=O)[C@H](CC(C)C)NC(=O)N(Cc1ccccc1)C[C@@H](O)[C@H](Cc1ccccc1)NC(=O)OC(C)(C)C)C(C)C,active: 3.35 µM,–
C[C@H](Oc1ccc(S(C)(=O)=O)cc1C(=O)N1CCN(c2ncc(C(F)(F)F)cc2F)CC1)C(F)(F)F,"inconclusive: 23.1 µM [cytotoxic, partial curve]",–
Cn1c(=O)n(-c2ccc(C(C)(C)C#N)cc2)c2c3cc(C#Cc4cccnc4)ccc3ncc21,active: 0.0447 µM,–
O=C(Nc1cnc(Cl)nc1)c1ccc(F)c(F)c1,"inconclusive: 29.1 µM [cytotoxic, single point]",–
c1ccc(N2CCN(CCc3nn[nH]n3)CC2)cc1,–,inactive: 82%
CC1CC(=O)C2=C(C1)C1OC1C1(O)C2C(=O)c2cccc(O)c2C1O (centres undefined),–,inactive: 6.12%
OC[C@H]1O[C@@H](OCCc2ccc(O)cc2)[C@H](O[C@@H]2OC[C@](O)(CO)[C@H]2O)[C@@H](O)[C@@H]1O,"inconclusive: 11.2 µM [cytotoxic, single point]",–
C=C(C)C(=O)O[C@H]1C[C@@](C)(O)C2(O)CCC(C)(/C=C3/OC(=O)C(COC)=C31)O2 (some centres undefined),active: 0.453 µM,–
CC(=O)OC/C(=C/C(=O)O)CC[C@@H]1C(CO)=CC[C@@H]2C(C)(C)CCC[C@@]12C,"inconclusive: 10.1 µM [cytotoxic, single point]",–
Nc1ccc(/C=C/C(=O)NCc2cc3cc(-c4ccc(C(=O)N5CCC(F)(F)CC5)cc4)cc(-c4ccc(F)cc4)c3o2)cn1,"inconclusive: 0.13 µM [cytotoxic, full curve]",–
CCN1/C(=C/C(C)=O)Sc2ccc(O)cc21,"inconclusive: 18.4 µM [cytotoxic, partial curve]",–
CC1CCC(=O)CC(SCC(O)C(=O)O)CCC(=O)O1 (centres undefined),"inconclusive: 8.2 µM [cytotoxic, partial curve]",–
